Data as given in US20240376128A1, “N-CYCLOPROPYLPYRIDO [4, 3-D] PYRIMIDIN-4-AMINE DERIVATIVES AND USES THEREOF” (Jacobio Pharmaceuticals Co., Ltd., priority 2021, published 2024).

Experiments:
K-Ras WT [1] = target: T1, K-Ras WT (Homo sapiens, UniProt P01116); assay: SOS1 catalyzed nucleotide exchange assay (GDP form K-Ras), TR-FRET; details: read-out: Biochemical assays, IC50, K-Ras WT GDP
Description: The parameters were F486: Excitation 340 nm, Emission 486 nm, Lag time 100 pas, Integration time 200 pas; F515: Excitation 340 nm, Emission 515 nm, Lag time 100 pas, Integration time 200 pas. TR-FRET ratios for each individual wells were calculated by equation: TR-FRET ratio=(Signal F515/Signal F486)*10000.

K-Ras WT [2] = target: T1, K-Ras WT; assay: GTP-K-Ras (GppNp-K-Ras) and cRAF interaction assay, HTRF; details: read-out: Biochemical assays, IC50, K-Ras WT GppNp
Excerpt: GppNp is an analog of GTP.

Question: How did the IC50 (K-Ras WT [1]) turn out when `C#Cc1c(F)ccc2cc(O)cc(-c3ncc4c(N(C)C5(C)CC5)nc(OC[C@@]56CCCN5C[C@H](F)C6)nc4c3F)c12` [Compound 19] was run?
Answer: 55 nM

Question: And the IC50 (K-Ras WT [2])?
Answer: 2870 nM
